# In all, about 200,000 compounds went through this assay and about 10 (0.005%) were called active. The inconclusive results got no clear call from the source; some entries with a clear call stand among them for comparison. The call rests on the fitted dose curve; in most records, active means well fitted inhibition curve with a large enough effect; inconclusive means small, poorly fitted or top-dose-only effect, or effect the other way, or another doubt; inactive means no such curve, though single readings can be large or run the other way. Potencies of inconclusive entries are left out as doubtful fits.
# Target: Lysosomal alpha-glucosidase (Homo sapiens) (UniProt P10253)
# Assay: qHTS Assay for Inhibitors of Human alpha-Glucosidase as a Potential Chaperone Treatment of Pompe Disease;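 on activity change, negative = inhibition: plate controls were uninhibited enzyme wells for no effect and no-enzyme background for full effect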
# Settings: purified human GAA, 4-MU-alpha-glucoside fluorescence; activity change, negative = inhibition: at 76.9 µM (top of the series) unless noted
# Summary of the method: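 Activity normalized between no-enzyme (basal) and enzyme-only wells. Conditions: 4 nM human enzyme, 400 uM fluorogenic substrate, citrate/phosphate pH 5.0 with Tween-20, 20 min room temperature, compounds up to 77 uM.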
# Potency means the concentration at half of the fitted maximal effect; tags describe the fitted curve by direction and shape.
Compound,Potency,"activity change, negative = inhibition"
COc1ccc(OC)c(NC(=O)Nc2ccccc2C)c1,"inconclusive [inhibitor, single point]",–
COc1ccccc1NC(=O)c1ccc(COc2ccc3c(c2)CCC3)cc1,"inconclusive [inhibitor, partial curve]",–
COc1ccc(-[n+]2c(C)cc(/C=C3\Sc4ccccc4N3C)cc2C)cc1,"inconclusive [inhibitor, single point]",–
CC(=O)N=c1sc2ccccc2n1C,inactive,–
Cc1ccc(CN2CCN(/N=C/c3cc([N+](=O)[O-])ccc3Cl)CC2)cc1,"inconclusive [inhibitor, full curve, poor fit]",–
Cc1ccc(C)c(Cn2c(O)c(N=NC(=S)Nc3ccccc3F)c3ccccc32)c1,"inconclusive [inhibitor, full curve]",–
CCN(CC)C(=O)c1ccccc1NC(=O)CN1C(=O)c2ccccc2C1=O,–,inconclusive: 16.1% [activator]
COc1ccc(CCNC(=O)Cn2cnc3scc(-c4ccccc4)c3c2=O)cc1OC,"inconclusive [inhibitor, single point]",–
O=C(CCn1c(=O)oc2ccccc21)N1CCc2ccccc21,"inconclusive [inhibitor, single point]",–
COc1ccc(Nc2oc(-c3ccc(F)cc3)nc2C#N)cc1,–,inconclusive: 20.4% [activator]
CCSc1nc(C)cc(C)c1S(=O)(=O)c1ccccc1C,"inconclusive [inhibitor, single point]",–
O=C(Nc1cccc(Cl)c1)C1CCCN(S(=O)(=O)c2ccc(F)cc2)C1 (stereo not drawn),"inconclusive [inhibitor, partial curve, poor fit]",–
O=C(N/N=C/c1c[nH]c2ccccc12)c1sc2ccccc2c1Cl,"inconclusive [inhibitor, full curve]",–
Cc1cc(C)c(C(=O)CSc2nnc(N)s2)cc1C,"inconclusive [inhibitor, full curve, poor fit]",–
Nc1nc(-c2cccc(F)c2)cs1,–,inconclusive: 16.3% [activator]
CN1CCc2c(sc(/N=C/c3ccco3)c2C(N)=O)C1,–,inconclusive: 89% [activator]
CCOC(=O)C1=C(C)N(C)C(C)=C(C(=O)OCC)C1c1ccccc1,"inconclusive [activator, single point]",–
N/C(COc1ncn(-c2ccccc2)n1)=N\S(=O)(=O)c1ccccc1,–,inconclusive: -17.8% [inhibitor]
COc1ccc(N=C2C(=O)N3c4c(cccc42)C(C)=CC3(C)C)cc1,"inconclusive [inhibitor, single point]",–
Cn1c(NC(=O)c2cc(-c3ccc4c(c3)OCO4)nc3ccccc23)cc(=O)n(C)c1=O,–,inconclusive: 15.5% [activator]
Cc1ccc(N(CC(=O)NC2CCCCC2)C(=O)Cn2nnc(-c3ccc(C)o3)n2)cc1,–,inconclusive: 4% [activator]

Compound,Potency,"activity change, negative = inhibition"
CCCOc1ccc(C2c3c(oc4ccccc4c3=O)C(=O)N2CCN(CC)CC)cc1OC (stereo not drawn),"inconclusive [inhibitor, full curve, poor fit]",–
Brc1c(CSc2nncn2-c2ccccc2)nc2ncccn12,"inconclusive [activator, partial curve]",–
COc1cc(-c2nnc(SCc3cccnc3)n2C)cc(OC)c1O,"inconclusive [inhibitor, single point]",–
CCN(CC)S(=O)(=O)c1ccc(C)c(NC(=S)N2CCN(Cc3ccc4c(c3)OCO4)CC2)c1,"inconclusive [inhibitor, partial curve, poor fit]",–
CCOC(=O)c1ccc(S(=O)(=O)N2CCN(CCC#N)CC2)cc1,"inconclusive [inhibitor, single point]",–
Fc1ccc(Nc2ncnc3sc4c(c23)CCC4)cc1,"inconclusive [inhibitor, full curve, poor fit]",–
COC(=O)c1c(C#N)c(N)nc2c1CCCC2,"inconclusive [activator, partial curve]",–
O=C(O)CSc1cc(C(=O)c2cc(F)ccc2O)cn2c(=O)c3c(-c4ccccc4)csc3nc12,"inconclusive [inhibitor, single point]",–
Cc1cc(CNCc2c(C(=O)N3CCCCCCC3)nc3ccc(Cl)cn23)nn1C,–,inconclusive: 15.8% [activator]
COc1ccc(C)cc1-n1c(N)c(C#N)c(C#N)c1-c1ccc(OC)c(OC)c1OC,–,inconclusive: -16.2% [inhibitor]
O=C(COC(=O)CCS(=O)(=O)c1ccc(Cl)cc1)NCCc1ccccc1,"inconclusive [inhibitor, partial curve]",–
CCC(C)(C)n1nnnc1C(c1cc2cc3c(cc2[nH]c1=O)OCO3)N1CCN(C)CC1 (stereo not drawn),"inconclusive [activator, partial curve]",–
N#CCc1c(C#N)c(N)nc(N2CCCC(O)C2)c1C#N (stereo not drawn),"inconclusive [inhibitor, single point]",–
CCCNS(=O)(=O)c1ccc(NC(=O)c2cccnc2)cc1,"inconclusive [inhibitor, single point]",–
C=CCSC(=S)Nc1c(C)n(C)n(-c2ccccc2)c1=O,"inconclusive [activator, full curve, poor fit]",–
CC(=O)Nc1ccc(S(=O)(=O)c2c(N)n(CCN3CCOCC3)c3nc4ccccc4nc23)cc1,"inconclusive [activator, single point]",–
CCN(Cc1ccccc1)C(=O)CSc1nc(C)cc(C)c1C#N,"inconclusive [inhibitor, single point]",–
CCOc1ccc(S(=O)(=O)Nc2cccc(C(=O)N3CCN(c4ccc(OC)cc4)CC3)c2)cc1,"inconclusive [inhibitor, partial curve, poor fit]",–
CCn1nc(CC(=O)Nc2nnc(CC(=O)N3CCOCC3)s2)c2ccccc2c1=O,"inconclusive [inhibitor, full curve, poor fit]",–
Oc1ccccc1/C=N/Nc1nccnc1Cl,inactive,–
Cc1nn(-c2ccccc2)c2nc(-c3cccs3)cc(C(=O)NN)c12,–,inconclusive: -16.5% [inhibitor]

Compound,Potency,"activity change, negative = inhibition"
CCOC(=O)C1=C(Nc2ccc(C)cc2)CC(C)(O)C(C(=O)OCC)C1c1ccccc1 (stereo not drawn),"inconclusive [inhibitor, single point]",–
O=C(CSc1nnnn1-c1ccccc1)c1cc2ccccc2oc1=O,"inconclusive [inhibitor, full curve]",–
C=CCn1c(SCC(=O)c2cc(C)n(C(C)COC)c2C)nc2sc(C)c(C)c2c1=O (stereo not drawn),–,inconclusive: -21.2% [inhibitor]
COc1ccc(NS(=O)(=O)c2ccc(NC(=S)NC(=O)/C=C/c3ccc(C)cc3)cc2)nn1,"inconclusive [inhibitor, partial curve, poor fit]",–
CCOc1c(OC(C)=O)ccc(/C=C/c2ccc3cccc(OC)c3n2)c1[N+](=O)[O-],"inconclusive [inhibitor, single point]",–
O=c1oc2cc(Oc3c([N+](=O)[O-])cc(C(F)(F)F)cc3[N+](=O)[O-])ccc2c2c1CCCC2,"inconclusive [activator, partial curve]",–
CCCC1/C(=N/O)CC(c2ccccc2)NC1c1ccccc1 (stereo not drawn),"inconclusive [inhibitor, single point]",–
O=C(CCc1ccccc1)Nc1cccc(NC(=O)CCc2ccccc2)c1,"inconclusive [inhibitor, single point]",–
CC(C)CNC(=O)C1CCN(Cc2ccc(OCc3ccccc3)cc2)CC1,"inconclusive [inhibitor, partial curve, poor fit]",–
CCCOc1c(OC)cccc1C1CC(=O)Nc2cc3c(cc21)OCCO3 (stereo not drawn),"inconclusive [inhibitor, single point]",–
Cc1nnc(N/N=C/c2ccc([N+](=O)[O-])cc2)n1N,"inconclusive [inhibitor, single point]",–
Cc1cccn2c(=O)c(C=Nc3c(C)n(C)n(-c4ccccc4)c3=O)c(N3CCCC3)nc12,inactive,–
O=C(CSc1nc2ccccc2c(=O)[nH]1)N1CCN(S(=O)(=O)c2ccccc2)CC1,"inconclusive [inhibitor, full curve, poor fit]",–
O=C(NCCNC(=O)c1cc(OCC(F)(F)F)ccc1OCC(F)(F)F)Nc1cccc(C(F)(F)F)c1,–,inconclusive: -15.8% [inhibitor]
CC(C)=CCN1CCN(Cc2ccc(Oc3ncccn3)cc2)CC1CCO (stereo not drawn),–,inconclusive: 15.3% [activator]
C(=C/c1nccc2c1[nH]c1ccccc12)/c1ccc2c(c1)OCO2,"inconclusive [activator, full curve]",–
c1csc(CSc2nnc3sc4ccccc4n23)c1,inactive,–
c1ccc(NCCCNc2ccccc2)cc1,–,inconclusive: -15.3% [inhibitor]
N#CC1=C(N)Oc2c(ccc3ccccc23)C1c1ccsc1 (stereo not drawn),"inconclusive [inhibitor, partial curve]",–
CCOc1ccccc1N=CC1=C(O)CC(c2ccccc2)CC1=O (stereo not drawn),"inconclusive [activator, partial curve, poor fit]",–
Cc1nn(C2CCCO2)c(=O)nc1N (stereo not drawn),"inconclusive [activator, full curve, poor fit]",–

# From PubChem BioAssay AID1466 (National Center for Advancing Translational Sciences (NCATS), 2008)
